From PubChem BioAssay AID1508623 (National Center for Advancing Translational Sciences (NCATS), 2021)
Among all 48,000 compounds or so, about 450 (0.94%) were called active. Another 19% or so got no clear call; they are omitted. The call rests on the fitted dose curve; in most records, active means well fitted inhibition curve with a large enough effect; inconclusive means small, poorly fitted or top-dose-only effect; inactive means no such curve, though single readings can be large or run the other way. The list shows a part of the results.

Assay: Primary qHTS for Identification of Small Molecule Inhibitors of Huntingtin Promoter Activity; further: nearly all actives have a fitted effect of over 50% in size
Conditions: HEK293 HTT promoter firefly luciferase reporter (activity 0% = vehicle and -100% = no light), 24 h; series mostly up to 57.5 µM; activity change, negative = inhibition: at the top concentration
How it was run: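 HEK293 cells carrying firefly luciferase reporters were seeded at 2,500 per well in Opti-MEM and cultured for 24 h. They were then treated with compounds at up to 57.5 uM final for 24 h at 37 degrees C before Dual-Glo luminescence readout.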

Activity change, negative = inhibition, inactive:
Cc1ccc(NC(=O)Cn2ncc3c4ccccc4n(Cc4ccccc4)c3c2=O)cc1Cl 4.07%
Cc1cn2c(=O)c(S(=O)(=O)NC(C)c3ccccc3)c(C)nc2s1 (stereo unspecified) -7.69%
CCCCCCCCCCCCOCCOCCOCCOCCOCCOCCOCCOCCOCCO -29.3%
CS(=O)(=O)c1ccc(-c2cn3ccccc3n2)cc1 6.72%
Cc1cc2nc(-c3cccc(NC(=O)COc4ccc(C(C)C)cc4)c3)oc2cc1C 74.3%
COc1ccc(N2CCN(C(=O)c3c(C)oc4nc(C)nc(N5CCCC5)c34)CC2)cc1 -0.0231%
Cc1ccc(N(C)S(=O)(=O)c2c(-c3ccccc3)csc2C(=O)O)cc1 -17.4%
COc1ccc(-c2nc(C)c(CCNC(=O)c3cccs3)s2)cc1 1.13%
Cc1ccccc1-c1nnc(SCC(=O)N2CCCc3ccccc32)o1 36.5%
Cc1ccc(NC(=O)N2CCC(CN3CCCCCC3)CC2)c(Cl)c1 3.52%
CC(C)c1ccc(N2C(=O)CSC23C(=O)N(Cc2ccccc2F)c2ccccc23)cc1 (stereo unspecified) -19.7%
CCCNC(=O)c1c(NC(=O)c2ccccc2F)sc2c1CCCCC2 1.8%
Cc1cccc(C(=O)OCc2cc(=O)n3nc(C4CC4)sc3n2)c1 -0.932%
COc1ccc(-c2nc(SCC(=O)Nc3ccc4c(c3)OCO4)c(-c3ccc(F)cc3)[nH]2)cc1OC -19.6%
CCOc1ccccc1NC(=O)CCc1nc(-c2cccc(C)c2)no1 -2.4%
COc1cc2c(cc1OC)CC(=O)N(CCCN(C)C[C@H]1Cc3cc(OC)c(OC)cc31)CC2 -7.65%
COc1cccc(-n2c(=O)c3sccc3n(Cc3cc(=O)n4cc(Cl)ccc4n3)c2=O)c1 -4.39%
CCC(=O)N1CCc2cc(S(=O)(=O)NCCC(=O)NCc3ccc(OC)cc3)ccc21 -26.3%
Cc1ccc(C(=O)Nc2cc3cc(Cl)ccc3oc2=O)cc1 -10.1%
Cc1ccc(-c2nc(CCNC(=O)C(=O)Nc3ccc(F)cc3F)cs2)cc1 -4.91%
Cc1ccc2c(c1)N(CC(=O)NCCCN1CCCCC1)C(=O)c1cccnc1O2 -0.849%
COc1ccccc1NCc1nnc2n1CCCCC2 -4.68%
COc1ccccc1CNC(=O)CCCN1C(=O)CCn2nc(-c3cn(C)c4ccccc34)cc21 -12.1%
CC(C)C(=O)Nc1c(C(=O)N2CCN(c3ccccc3F)CC2)oc2ccccc12 -12%
Fc1ccc(C(c2nnc(-c3ccccc3)o2)N2CCN(c3ccccc3)CC2)c(Cl)c1 (stereo unspecified) -34.9%
Cc1ccc(-c2nc3sc(CCNC(=O)c4ccco4)c(C)n3n2)cc1 -21.1%
COc1cc([C@@H]2c3cc4c(cc3[C@H](O)[C@H]3COC(=O)[C@@H]23)OCO4)cc(OC)c1OC -32.8%
COc1cc(Cl)c(C)cc1NC(=O)c1nn(-c2ccc(C)cc2)c(=O)n(C)c1=O 8.78%
Cc1ccc(CSc2nc3ccncc3n2Cc2nc(-c3ccc(Cl)cc3)oc2C)cc1 13.5%
CCOc1ccc(N2CC(NC(=O)c3cc4ccccc4o3)CC2=O)cc1 (stereo unspecified) -1.8%
COc1cccc(NC(=O)CSc2c(C)cnc3c2c(=O)n(C)c(=O)n3C)c1 -18.5%
CCCOC(=O)c1c(NC(=O)c2cc3nc(-c4ccc(OC)cc4)cc(C(F)(F)F)n3n2)sc2c1CCCC2 -9.67%
CCOC(=O)c1ccc(NC(=O)C(=O)NCCc2ccc(OC)cc2)cc1 -0.753% [at 11.5 µM]
COc1ccc2oc(=O)c(C(=O)N3CCN(c4cc(Cl)ccc4Cl)CC3)cc2c1 -8.75%
COc1ccccc1N1CCN(C(=O)c2cnn(C(C)(C)C)c2C2CCN(C(=O)OC(C)(C)C)CC2)CC1 -11.7%
COc1ccc(Nc2cc(C(=O)NCc3cccs3)c3ccccc3n2)cc1 13.6%
CCCCOC(=O)Cn1nnc2sc(-c3ccccc3)cc2c1=O 9.41%
CN1CCN(C(=O)C(=O)Nc2c3c(nn2-c2cccc(Cl)c2)CSC3)CC1 -12.6%
O=C(CCCCn1c(=O)c2ccccc2n(CC(=O)Nc2ccc(F)cc2F)c1=O)NCc1ccccc1Cl -8.23%
O=C(CSc1ncc(-c2ccccc2)[nH]1)Nc1ccc(F)cc1F -4.93%
Cc1ccc(Cn2c(=O)n(CCc3ccccc3)c(=O)c3c(C)c(C)sc32)cc1 -20.9%
CCc1ccccc1N1C(=O)N(CC(=O)c2ccc(Cl)cc2)c2ccccc2S1(=O)=O -20.4%
CCOC(=O)c1c(C)[nH]c(C)c1S(=O)(=O)N1CCCC(C(=O)NCc2ccc(C)cc2)C1 (stereo unspecified) -9.16%
COC(=O)c1c(SC)nc2ccccc2c1OCc1ccc(C)cc1 1.44%
CCOC(=O)Cn1c(=O)oc2cc(S(=O)(=O)N3CCCC(C)C3)ccc21 (stereo unspecified) -21.1%
CCOC(=O)c1cc(S(=O)(=O)N2CCN(c3cccc(OC)c3)CC2)[nH]n1 -31.1%
CCCCn1cc(S(=O)(=O)c2ccc(Cl)cc2)c(=O)c2cc(F)c(N3CCCC(C)C3)cc21 (stereo unspecified) 0.521%
COC(=O)c1c(-c2ccc(Cl)cc2)noc1N1CCN(c2cccc(C)c2C)CC1 -4.52%
CCc1cnc2c(c1SCC(=O)Nc1ccc(OC)c(OC)c1)c(=O)n(C)c(=O)n2C -21%
COc1cccc(CNC(=O)Cn2nc3c(cc2=O)CCCC3)c1OC 7.88%
CC1CCCN(C(=O)CCS(=O)(=O)c2cc3c(cc2Cl)NC(=O)CO3)C1 (stereo unspecified) -5.15%
CCOC(=O)c1noc2ncn(Cc3cccc(C#N)c3)c(=O)c12 1.1%
Cc1cc(Cl)ccc1NC(=O)CN1C(=O)COc2ccc(S(=O)(=O)N3CCC(C)CC3)cc21 -4.25%
Cc1c(C(=O)OC2CCC(C)CC2)[nH]c2c1C(=O)CC(c1ccccc1Cl)C2 (stereo unspecified) -21.1%
CCOc1ccc(CCNC(=O)CCCc2nnc3n(C)c(=O)c4sccc4n23)cc1OCC -9.64%
COc1ccc(OCC(=O)Nc2nc(-c3ccc(Br)cc3)ns2)cc1 24.9%
CCNc1nc(NC(C)CC)nc(Oc2ccc(OCC)nn2)n1 (stereo unspecified) 28.2%
COc1ccc(NC(=O)NCc2c(-n3cccc3)sc3c2CCCC3)c(OC)c1 -9.84%
CCc1cccc(C)c1NC(=O)NC1COc2ccccc2C1 (stereo unspecified) -6.88%
COc1ccc(NC(=O)CSc2nc(-c3ccc(OC)c(OC)c3)[nH]c2-c2ccc(C)cc2)cc1 -20.2%
COc1ccc(NCc2cc3cc4c(cc3n(CC(=O)Nc3ccccc3)c2=O)OCO4)cc1 -13.4%
CCOC(=O)Cc1ccc(NC(=O)N(C(C)C)C2CCN(C(C)=O)CC2)cc1 3.8%
Cn1c(=O)c2c(n3c4ccccc4nc13)NC(=O)CC2c1cccc(Cl)c1 (stereo unspecified) -29.9%
COC(=O)c1sccc1S(=O)(=O)N1CCN(c2ccc(C(C)=O)cc2)CC1 -10.6%
CCN(CC)CCOC(=O)c1ccc(NC(=O)c2cc3cccc(OC)c3oc2=O)cc1 25.7%
C[C@](N)(Cc1ccc(O)c(O)c1)C(=O)O
CCOCCc1nn2c(=O)cc(COC(=O)c3cccc(C)c3)nc2s1 1.2%
Cc1ccc(-c2cc(C(=O)Nc3c(C(=O)c4ccc(C)c(F)c4)oc4ccccc34)no2)cc1 -5.91%
CCOC(=O)c1c(NC(=O)CSc2cn(CCNC(=O)c3c(F)cccc3F)c3ccccc23)sc2c1CCCC2 -28.4%
COc1ccc(S(=O)(=O)NCCc2sc(-c3ccccc3)nc2C)cc1F -21.2%
Cc1ccc(Cl)cc1N1CCN(S(=O)(=O)c2ccc(-c3cnc(C4CC4)o3)cc2)CC1 -16.5%
CC(=O)c1ccc(NC(=O)c2cc(C3CC3)nc3c2c(C)nn3-c2ccc(C)cc2)cc1 -8.72%
CC(C)c1ccc(NC(=O)CN2C(=O)CCc3cc(S(=O)(=O)N4CCOCC4)ccc32)cc1 -29.3%
COc1ccc(C(=O)N2CCN(C(=O)COc3ccc(C)cc3)CC2)cc1OC 8.13%
COc1ccc(S(=O)(=O)NCCc2sc(-c3cccc(F)c3)nc2C)cc1 -28.1%
O=C(Nc1ccccc1F)C(Cc1ccccc1)N1Cc2ccccc2C1=O (stereo unspecified) -13.2%
COc1ccc(NC(=O)CN2CCN(c3ccccc3F)CC2)c(OC)c1 -12.9%
Cc1ccc(C(=O)/C=C/c2cn(CC(O)CN3CCCCCC3)c3ccccc23)cc1 (stereo unspecified) -11.7%
Cc1ccc(NC(=O)CSc2nccn2Cc2ccc3c(c2)OCO3)c(C)c1 -1.21%
c1cnc(N2CCN(Cc3ccc4c(c3)OCO4)CC2)nc1 12.7%
Cc1cc(C)c(NC(=O)CN(C)S(=O)(=O)c2ccc3c(c2)c(=O)n(C)c(=O)n3C)c(C)c1 -13.8%
CCCSCCCNC(=O)CN1C(=O)CCn2nc(-c3cn(C)c4ccccc34)cc21 -9.71%
CCC(C)NC(=O)CCC(=O)NNc1nc2ccccc2c2nc(C)nn12 (stereo unspecified) -1.56%
CCc1ccc(S(=O)(=O)n2ccnc2)cc1 10.8%
COCCn1c(=NC(=O)c2ccc3c(c2)OCCO3)sc2cc(NC(C)=O)ccc21 13.4%
Cc1ccc(-c2nn3c(=O)cc(CN4CCN(C(=O)c5ccc(C(C)(C)C)cc5)CC4)nc3s2)cc1 -20.9%
COc1cc(NS(=O)(=O)c2ccc(NC(=O)c3ccc(OC)c(Br)c3)cc2)nc(OC)n1 -18.4%
COc1cc(Cl)c(C)cc1Nc1nnc(-n2nc(C)cc2C)c2ccccc12 -6.88%
CCc1cccc(NC(=O)C(Cc2ccccc2)NS(=O)(=O)c2ccc3c(c2)c(=O)n(C)c(=O)n3C)c1 (stereo unspecified) -19.9%
COc1cccc(N2CCN(C(=O)c3c4c(nc5ccccc35)C(=O)N(C3CCCCC3)C4)CC2)c1 -9.17%
N[C@H]1CN(c2c(F)cc3c(=O)c(C(=O)O)cn(C4C[C@@H]4F)c3c2Cl)CC12CC2 (stereo partly specified) -0.923%
COc1cccc(NC(=O)C2CCCN2S(=O)(=O)c2ccc3nc(-c4ccccc4)[nH]c3c2)c1 (stereo unspecified) -23.8%
COc1ccc(OCc2nc(C#N)c(NCc3ccccc3Cl)o2)cc1 -26.8%
COc1ccccc1N1CCN(S(=O)(=O)c2ccc(-n3cnnn3)cc2)CC1 -21.1%
CCOC(=O)N1CCc2c(sc3c2c(=O)n(-c2ccc(CC)cc2)c(=O)n3Cc2cccc(OC)c2)C1 -4.27%
CCOc1ccc(C2c3c(oc4cc(C)c(C)cc4c3=O)C(=O)N2c2ccccn2)cc1 (stereo unspecified) 0.87%
